Among all 410,000 compounds or so, about 7,200 (1.8%) were called active. Inconclusive means that the source gave no clear call. Such entries were picked first, then a sample of the others. Calls come from the whole dose curve; as a rule, active = well fitted activation curve with a large enough effect; inconclusive = small, poorly fitted or top-dose-only effect, or another doubt; inactive = no such curve, though single readings can be large or run the other way. No potency is given beside an inconclusive call; the fits are too rough.
Experiment: qHTS of TDP-43 Inhibitors; note: nearly all actives have a fitted effect of over 50% in size
Conditions: TDP-43 expressing yeast growth rescue, BacTiter-Glo, 24 h; series mostly up to 46.1 µM
In short: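 Yeast cells expressing TDP-43 under galactose induction are exposed to compounds for 24 hr at 30 deg C. BacTiter-Glo luminescence measures growth, so protective compounds score as activators.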
With CNc1c(NS(=O)(=O)c2ccc(F)cc2)c(=O)oc2ccccc12 the Potency was “inactive”.
For C[C@]12CC[C@H](O)CC1=CCC1C2CC[C@@]2(C)C1CC[C@@H]2NCc1ccccc1 (some centres undefined), the Potency was active: 1.12 µM.
With O=C(NCC(c1cccs1)N1CCOCC1)c1cc(S(=O)(=O)N2CCOCC2)c(Cl)cc1Cl (centres undefined) the Potency was inconclusive [activator, single point].
In the case of Cc1cc(C)n2nc(SCc3ccc(F)cc3Cl)nc2n1, the Potency is reported as active: 11.2 µM.
For COc1ccc(NC(=O)CSc2c(C(C)C)cnc3c2c(=O)n(C)c(=O)n3C)c(OC)c1, the Potency was “inactive”.
With COc1cc(/C=C2/C(=O)ON=C2c2ccccc2)ccc1O the Potency was inconclusive [activator, single point].
With COCC(C)Nc1ncnc2c1cnn2-c1cccc(Cl)c1 (centres undefined) the Potency was inconclusive [activator, single point].
For Cc1ccccc1NC(=O)C1C2C=CC(C3CC23)C1C(=O)O (centres undefined), the Potency was active: 11.2 µM.
With Cc1ccc(CN2CC(C(=O)N3CCN(S(=O)(=O)c4cccc(F)c4)CC3)CC2=O)cc1 (centres undefined) the Potency was “inactive”.
For CCn1c(SCc2nc(-c3ccc(Cl)cc3)no2)nnc1-c1ccco1, the Potency was inconclusive [activator, single point].
In the case of CC(C)Nc1nc(Nc2ccc(C#N)cc2)c2sccc2n1, the Potency is reported as inconclusive [activator, single point].
With CC(C)c1nc2sc3c(N4CCCCC4)ncnc3c2c2c1CCCC2 the Potency was “inactive”.
With CCOc1ccc(-c2[nH]ncc2Oc2ccccc2OC)c(O)c1 the Potency was inconclusive [activator, single point].
With CC1(C)OC(=O)C2=C(CC(CCc3ccccc3)OC2c2ccccc2)O1 (centres undefined) the Potency was inconclusive [activator, single point].
For CCCCCC1CC1C(=O)N/N=C/c1ccc(N(C)C)cc1 (centres undefined), the Potency was inconclusive [activator, single point].
For CC(=O)Nc1ccc(NCN2C(=O)[C@@H]3[C@H]4CC[C@H](C4)[C@@H]3C2=O)cc1, the Potency was active: 6.31 µM.
In the case of CCOC(=O)c1nnn(-c2nc(N(C)C)nc(N(C)C)n2)c1C, the Potency is reported as inconclusive [activator, partial curve].
With COC(=O)c1ccc(NC(=O)CSc2nnc(-c3ccncc3)n2C)cc1 the Potency was inconclusive [activator, partial curve].
For Cc1ccc2c(c1)C(=O)CC(c1ccc3c(c1)OCCO3)O2 (centres undefined), the Potency was active: 11.2 µM.
For O=c1ccc2ccccc2c2ccccc12, the Potency was active: 3.16 µM.
In the case of CCCCCNC(=O)C(c1ccc(OC)cc1)n1c(=O)c(-c2ccco2)nc2ccccc21 (centres undefined), the Potency is reported as inconclusive [activator, partial curve].
In the case of Cc1ccc(-n2c(=O)[nH]c3sc4c(c3c2=O)CCCC4)cc1, the Potency is reported as inconclusive [activator, full curve].
For O=C(Nc1ccccc1)N(Cc1cccs1)c1ccc(Cl)cc1, the Potency was “inactive”.
In the case of Cc1c(NC(=S)NCc2ccc(F)cc2)cccc1[N+](=O)[O-], the Potency is reported as inconclusive [activator, full curve].
In the case of O=C1ON=C(c2ccc([N+](=O)[O-])cc2)/C1=C/c1ccccc1O, the Potency is reported as inconclusive [activator, single point].
For CC1=C([N+](=O)[O-])C(c2cccc(Br)c2)C2=C(N1)c1ccccc1C2=O (centres undefined), the Potency was inconclusive [activator, single point].
In the case of c1ccc(CSc2cc3ccccc3[nH]2)cc1, the Potency is reported as inconclusive [activator, single point].
With Cc1ccccc1-n1c(SCC(=O)N2CCCCC2)nc(O)cc1=O the Potency was inconclusive [activator, full curve, poor fit].
For Cc1ccc2ccc3cc(C(=O)Nc4ccc(C)c(F)c4)nc3c2[nH]1, the Potency was active: 3.98 µM.
With COC(=O)c1c(NC(=O)c2c(OC)cccc2OC)sc2c1C(C(=O)OC)CC2 (centres undefined) the Potency was “inactive”.
With C=CCSc1nc(C)c(CCCC)c(=O)[nH]1 the Potency was inconclusive [activator, single point].
With COc1ccc(CCNC(=O)C2=C(C)C(=O)OC23CCCCC3)c(OC)c1 the Potency was inconclusive [activator, partial curve, poor fit].
For O=C(CNc1ccccc1Cl)c1ccc(Br)cc1, the Potency was inconclusive [activator, full curve].
With CC1CCN(c2ccc(C(=O)NCc3ccco3)cc2[N+](=O)[O-])CC1 the Potency was inconclusive [activator, partial curve].
For CCc1ccc(NC(=O)CCc2c(C)n(C)c3cc(-c4ccccc4C)nn3c2=O)cc1, the Potency was “inactive”.
For Cc1ccccc1C(=O)c1cccn1CC(=O)NCc1ccc2c(c1)OCO2, the Potency was inconclusive [activator, partial curve].
In the case of O=c1[nH]c(Sc2ccc([N+](=O)[O-])cc2[N+](=O)[O-])nc2ccccc12, the Potency is reported as active: 12.6 µM.
In the case of Cc1nc2ccccn2c1C(=O)/C=C/c1cccc([N+](=O)[O-])c1, the Potency is reported as active: 2.51 µM.
For Oc1ccc(C[C@@H](CN2CCCC2CN2C(=S)NC[C@@H]2Cc2ccccc2)N2C[C@H](Cc3ccccc3)N(CC3CCCCC3)C2=S)cc1 (some centres undefined), the Potency was inconclusive [activator, single point].
With COc1cc2c(cc1OC)CN(c1ccc([N+](=O)[O-])cc1C#N)CC2 the Potency was inconclusive [activator, single point].
For Cc1ccc(C(=O)Nc2sc(C(=O)N(C)C)c(C)c2C#N)cc1, the Potency was inconclusive [activator, partial curve].
In the case of COc1ccccc1N1CCN(c2nc3ccccc3nc2C(C#N)C(=O)OC(C)C)CC1 (centres undefined), the Potency is reported as inconclusive [activator, single point].
For COc1ccc(-c2cc(C(=O)NCCc3ccccc3)c3c(-c4ccccc4)[nH]nc3n2)cc1, the Potency was inconclusive [activator, single point].
In the case of Cc1csc(NC(=O)c2ccc(COc3ccccc3)o2)n1, the Potency is reported as active: 22.4 µM.
Potency is the fitted concentration of half-maximal effect; tags give direction and shape of the fitted curve.
